# Assay results taken from the supplement of paper PMC10126150.
# Values marked as one replicate rest on one cluster of the flow cell; about a third of the high ones do not repeat.
# Tested on: ATP
# Assay: switch fluorescence ratio, 500 uM ATP over buffer (Cy3 cluster intensity, sum of 5 cycles each) (fold (ratio)); higher = stronger signal-on switching upon ATP binding; sequences stand for … in TCGTCGGCAGCGTCAGATGTGTATAAGAGACAGTTTTTTTTTTTTTTTTTTTTTTTTT…TC
# Settings: aptamer strand: ATP DNA aptamer (quencher-CACCTGGGGGAGTATTGCGGAGGAAGG + anchor), 100 nM annealed; ATP concentration: 500 uM; one replicate
# In short: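 Between each of five buffer/ATP cycles, the flow-cell was stripped with NaOH and re-annealed. Each cycle imaged Cy3-labelled switching-strand clusters, annealed to 100 nM quencher-labelled ATP aptamer on a modified Illumina MiSeq flow-cell, first in selection buffer and then after 15 min with 500 uM ATP at 22 °C. The fluorescence ratio is summed target-cycle over summed buffer-cycle Cy3 intensity per cluster, averaged per switch-domain sequence, with clusters outside 100-1000 RFU excluded.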
# 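Also: ATP exposure 15 min at 22 °C before imaging.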
row,Sequence,switch fluorescence ratio
1,GGCTAAATTT,1.02
2,GGCTAACTTC,0.992
3,GGCTACAGAC,1.05
4,GGCTACTAGA,1
5,GGCTAGAGGC,1.01
6,GGCTAGGC,0.982
7,GGCTAGGTTG,0.966
8,GGCTATGGTA,1.02
9,GGCTCACAGA,0.963
10,GGCTCCCCTT,1.28
11,GGCTCCTA,1.03
12,GGCTCGAGGT,1.01
13,GGCTCTGTCC,0.992
14,GGCTGAGGAT,0.959
15,GGCTGCAAG,1.01
16,GGCTGCCTTT,0.987
17,GGCTGGACAA,0.995
18,GGCTGGACTA,1
19,GGCTGGGACT,0.937
20,GGCTGGTTCC,0.974
21,GGCTGTAACG,1.06
22,GGCTGTAGCT,1.01
23,GGCTTAAAGA,1.03
24,GGCTTAACTA,0.992
25,GGCTTAATCT,0.96
26,GGCTTACGGT,0.967

row,Sequence,switch fluorescence ratio
1,GGCTTACGTA,1.08
2,GGCTTCAGCC,0.979
3,GGCTTGCAAG,1.05
4,GGCTTGGCGG,0.999
5,GGCTTGTTGG,0.995
6,GGCTTTCAAG,0.953
7,GGCTTTCCAT,0.998
8,GGGAAAAACC,1.03
9,GGGAAAAACG,1.02
10,GGGAAATCAA,1.01
11,GGGAACAAGC,1.02
12,GGGAACCTAG,0.986
13,GGGAACTGTG,1.02
14,GGGAAGATGA,1.01
15,GGGAAGCACG,1
16,GGGAAGCCCG,1
17,GGGAAGGACC,0.977
18,GGGAAGGATG,0.987
19,GGGAAGTGTA,1.02
20,GGGAAGTGTT,1.01
21,GGGAATAAC,0.984
22,GGGAATGAAT,0.988
23,GGGACAACGG,1.07
24,GGGACAGCAC,1.25
25,GGGACCAGGT,1.03
26,GGGACCATTA,1.01

row,Sequence,switch fluorescence ratio
1,GGGACCCGT,1.07
2,GGGACCGCT,0.995
3,GGGACCGCTG,0.997
4,GGGACGGTCT,1.06
5,GGGACTAGCA,1.02
6,GGGACTGCGG,0.911
7,GGGACTTCA,1.02
8,GGGACTTCCC,1.12
9,GGGACTTGAA,1
10,GGGAGACCAC,1.02
11,GGGAGAGTGT,0.994
12,GGGAGCGGCT,0.961
13,GGGAGCTATG,0.929
14,GGGAGTCTCG,0.966
15,GGGAGTGG,0.965
16,GGGAGTGGTT,0.987
17,GGGAGTGTCG,1.05
18,GGGATAAATC,1.01
19,GGGATAAGTG,0.978
20,GGGATACAAA,0.982
21,GGGATAGAGT,0.961
22,GGGATGATAA,1.01
23,GGGATGATAT,0.997
24,GGGATGCGCC,1.01
25,GGGATGGAGT,0.994
26,GGGATGGTGC,1.02

row,Sequence,switch fluorescence ratio
1,GGGATGTGG,0.984
2,GGGATTCCAC,0.968
3,GGGATTCGTT,0.975
4,GGGATTGCG,1.01
5,GGGATTTACA,0.98
6,GGGCAAATAG,1.12
7,GGGCAATGGC,1.13
8,GGGCACAAAG,1.61
9,GGGCACACCG,1.01
10,GGGCACTTAG,1.03
11,GGGCAGGGCT,0.948
12,GGGCATAGCG,1
13,GGGCATGGGG,1.02
14,GGGCATGTAT,1.01
15,GGGCCAAGCA,1.01
16,GGGCCACGAA,0.973
17,GGGCCAGAAC,0.962
18,GGGCCCCGT,1.01
19,GGGCCCGGCC,0.979
20,GGGCCGAAAT,1.03
21,GGGCCTACGG,1.02
22,GGGCCTGGGC,0.979
23,GGGCGACATA,1.06
24,GGGCGCCCGT,1
25,GGGCGCCGA,0.936
26,GGGCGCGGGT,1.03

row,Sequence,switch fluorescence ratio
1,GGGCGTCCAG,1.02
2,GGGCGTCGCA,1.06
3,GGGCGTCGT,0.994
4,GGGCGTTACC,1
5,GGGCTAACGG,1.02
6,GGGCTAACGT,1.04
7,GGGCTCCTTT,0.976
8,GGGCTCGTGT,0.979
9,GGGCTCTACC,1.06
10,GGGCTGAGAT,1.02
11,GGGCTGGTGG,1.05
12,GGGCTTATCG,0.997
13,GGGCTTGAGC,1.01
14,GGGCTTGCTA,1.02
15,GGGCTTGGAA,0.974
16,GGGCTTTTCC,1.06
17,GGGGAATGTC,1.08
18,GGGGACAACC,0.991
19,GGGGACCAAG,1
20,GGGGACCGAC,1.13
21,GGGGACCGCC,1.07
22,GGGGACCTTT,1.03
23,GGGGACTGTG,1.01
24,GGGGAGATGA,1.01
25,GGGGAGGAGA,1.02
26,GGGGATAGCC,1

row,Sequence,switch fluorescence ratio
1,GGGGATCAGA,1
2,GGGGATCCTG,0.951
3,GGGGCAACGC,0.977
4,GGGGCACAGG,1.14
5,GGGGCAGCT,0.971
6,GGGGCCCCCA,1.08
7,GGGGCCCGGT,0.948
8,GGGGCGGGAC,0.995
9,GGGGCGGGG,0.984
10,GGGGCTTCGA,0.963
11,GGGGGAACCC,0.962
12,GGGGGACAAG,1.02
13,GGGGGACGG,1.04
14,GGGGGAGCAT,0.955
15,GGGGGCCCCT,1.04
16,GGGGGCTCT,1.05
17,GGGGGGAAT,0.987
18,GGGGGTAGG,1.1
19,GGGGTCC,0.983
20,GGGGTCTATT,1
21,GGGGTGAACA,0.945
22,GGGGTGCATC,1.04
23,GGGGTGCCGA,1.04
24,GGGGTTACGT,0.98
25,GGGGTTCATA,0.999
26,GGGGTTGAT,0.987

row,Sequence,switch fluorescence ratio
1,GGGGTTGATT,0.971
2,GGGTAAAACA,0.984
3,GGGTAACTTC,0.987
4,GGGTAAGATT,1.01
5,GGGTACAAAT,1.01
6,GGGTACGGAG,1.01
7,GGGTACGGCG,1.03
8,GGGTAGTATG,1
9,GGGTAGTCCA,1.02
10,GGGTAGTGTC,0.971
11,GGGTATCATA,0.96
12,GGGTATCGGT,0.992
13,GGGTCACCTT,0.977
14,GGGTCCAGC,0.974
15,GGGTCCTGCC,1.01
16,GGGTCGAATC,1
17,GGGTCGCCAA,0.98
18,GGGTCGGCTG,0.994
19,GGGTCGTTAG,1.01
20,GGGTCTAACT,1.05
21,GGGTCTAGAA,0.977
22,GGGTCTAGTA,1.01
23,GGGTCTAGTT,1.03
24,GGGTCTGCTG,0.961
25,GGGTCTGTCC,1.01
26,GGGTCTTGGT,0.949

row,Sequence,switch fluorescence ratio
1,GGGTGAGACA,0.917
2,GGGTGATCTT,1.05
3,GGGTGCAACG,0.979
4,GGGTGCAATA,1.25
5,GGGTGCGATC,1.04
6,GGGTGGGACT,1.03
7,GGGTGGTGCA,0.963
8,GGGTGGTTCA,1.01
9,GGGTGTCCAA,0.993
10,GGGTGTGGAA,1
11,GGGTGTTCCG,0.994
12,GGGTGTTG,0.964
13,GGGTTAAAGC,0.959
14,GGGTTACGT,1.03
15,GGGTTAGGCC,0.997
16,GGGTTCTCC,1.26
17,GGGTTGATCA,0.955
18,GGGTTGCTCG,0.994
19,GGGTTTAGCA,1.01
